Measured values reported in patent EP0545991B1, “PEPTIDES THAT BLOCK HUMAN IMMUNODEFICIENCY VIRUS INFECTIONS AND METHODS OF USE THEREOF” (VAHLNE, Anders, priority 1990, dated 1992).
Where “and” joins values, the source holds several entries; their conditions need not be identical. Identical values can stand only once. At least one peptide structure holds a part that was inferred or is arguable (an end, a ring closure or a residue). Some compounds share one wording; it may come from a single statement. Where a SMILES comes first, the peptide text is derived from it.

Legend:
[1] = system: HIV; assay type: cell-based; conditions: for prevention of HIV infection by p24 levels and syncytia formation (words): Tables 3 to 6
Protocol: Virus at 100 50% tissue culture infectious doses (TCID50) and peptides at concentrations of 250 and 25 µg/ml were added to the cells simultaneously and incubated for 2 hours at 4°C with frequent stirring. Subsequently, the temperature was increased to 37°C and the mixtures were subjected to a second incubation for 2 hours. […] Cells, at a concentration of 5 x 10^5/ml, were then added to 24 multidish well plates at a final volume of 1.5 ml of growth medium (RPMI supplemented with 10% fetal calf serum (FCS), antibiotics and polybrene (2 µg/ml)), with the addition of peptides at dilutions of 250 or 25 µg/ml. […] As additional controls, two HIV infected cell cultures (designated pos. controls 1 and 2, Tables 3-5) and two uninfected cell cultures (designated neg. controls 1 and 2) were used.
Infected cells were continuously monitored for formation of syncytia and the growth medium supernatants were analyzed at days 9-12 p.i. for p24 antigen which is an indicator of HIV replication.
Briefly, the following protocol was used for detection of the p24 antigen. HIV p24 antigen was determined using a rabbit anti-p24 polyclonal antiserum as capture antibody and a biotinylated rabbit anti-p24 polyclonal antibody was used as detecting antibody in an avidin-horse radish peroxidase (HRP) ELISA. The sensitivity of the assay allowed detection of approximately 50 pg of p24 antigen per ml supernatant. […] Serial dilutions of the supernatants were made so as to detect p24 concentration in the most accurate range (< 2.0 absorbance units).
The number of infected cells were then determined by indirect immunofluorescence using a human HIV positive serum diluted 1/100 and FITC conjugated antihuman IgG (Bio Merieux, France) diluted 1/200.

[2] = system: HTLV IIIB/H9 N.Y.; assay: Infectivity assay (p24 ELISA, syncytia formation, indirect immunofluorescence), HTLV-IIIB/H9 New York; assay type: cell-based, HIV
[3] = system: HTLV IIIB/H9 Denmark; assay: Infectivity assay (p24 ELISA, syncytia formation, indirect immunofluorescence), HTLV-IIIB/H9 Denmark; assay type: cell-based, HIV
[4] = system: ELI1/HUT; assay: Infectivity assay (p24 ELISA, indirect immunofluorescence), ELI-1/HUT; assay type: cell-based, HIV
[5] = system: herpes simplex virus type I (HSV-1) strain McIntyre; assay: Plaque reduction assay of HSV-1 on GMK AH1 cells; assay type: cell-based; conditions: for PLAQUE REDUCTION NO. OF PLAQUES: mean of two cultures, 4 days at 37°C

Compound: NCC(=O)NCC(=O)NCC(N)=O [GGG, Gly-Gly-Gly] (H-Gly-Gly-Gly-NH2)
- prevention of HIV infection by p24 levels and syncytia formation (words) [1]: do not inhibit HIV infectivity
- # OF SYNCYTIA/WELL Day 14 ([2]; 25 µg/ml, Table 6): 90
- PERCENTAGE OF AG POS CELLS ([2]; 25 µg/ml, Table 6): 40
- p24 1/10 ([2]; 25 µg/ml, Table 6): > 2.0 absorbance (454 nm)
- p24 1/100 ([2]; 25 µg/ml, Table 6): 1.89 absorbance (454 nm)
- p24 1/1,000 ([2]; 25 µg/ml, Table 6): 0.415 absorbance (454 nm)
- # OF SYNCYTIA/WELL Day 14 ([2]; 250 µg/ml, Table 6): 105
- PERCENTAGE OF AG POS CELLS ([2]; 250 µg/ml, Table 6): 30-40
- p24 1/10 ([2]; 250 µg/ml, Table 6): > 2.0 absorbance (454 nm)
- p24 1/100 ([2]; 250 µg/ml, Table 6): 0.548 absorbance (454 nm)
- p24 1/1,000 ([2]; 250 µg/ml, Table 6): 0.088 absorbance (454 nm)
- inhibitory effect on HIV replication by p24 synthesis and syncytia formation ([2]; Table 6): had no inhibitory effect on HIV replication

Compound: N=C(N)NCCC[C@H](NC(=O)CNC(=O)[C@@H]1CCCN1)C(N)=O [PGR, Pro-Gly-Arg] (H-Pro-Gly-Arg-NH2)
- # OF SYNCYTIA/WELL Day 9 ([3]; 25 µg/ml): 13
- % OF POS CELLS ([3]; 25 µg/ml): 5%
- p24 1/10 ([3]; 25 µg/ml): 2.161 absorbance (454 nm)
- p24 1/100 ([3]; 25 µg/ml): 0.74 absorbance (454 nm)
- p24 1/1,000 ([3]; 25 µg/ml): 0.237 absorbance (454 nm)
- p24 1/10,000 ([3]; 25 µg/ml): 0.103 absorbance (454 nm)
- # OF SYNCYTIA/WELL Day 9 ([3]; 250 µg/ml): 11
- % OF POS CELLS ([3]; 250 µg/ml): 5%
- p24 1/10 ([3]; 250 µg/ml): 2.188 absorbance (454 nm)
- p24 1/100 ([3]; 250 µg/ml): 0.772 absorbance (454 nm)
- p24 1/1,000 ([3]; 250 µg/ml): 0.221 absorbance (454 nm)
- p24 1/10,000 ([3]; 250 µg/ml): 0.127 absorbance (454 nm)
- infection of treated cells by p24 synthesis and syncytia formation ([1]; Tables 3-5): became infected
- prevention of HIV infection by p24 levels and syncytia formation (words) [1]: did not prevent HIV infection
- PERCENTAGE OF POS CELLS ([4]; 25 µg/ml): 15
- p24 1/10 ([4]; 25 µg/ml): 3 absorbance (454 nm)
- p24 1/100 ([4]; 25 µg/ml): 2.192 absorbance (454 nm)
- p24 1/1,000 ([4]; 25 µg/ml): 0.671 absorbance (454 nm)
- p24 1/10,000 ([4]; 25 µg/ml): 0.242 absorbance (454 nm)
- PERCENTAGE OF POS CELLS ([4]; 250 µg/ml): 10-15
- p24 1/10 ([4]; 250 µg/ml): 3 absorbance (454 nm)
- p24 1/100 ([4]; 250 µg/ml): 2.023 absorbance (454 nm)
- p24 1/1,000 ([4]; 250 µg/ml): 0.773 absorbance (454 nm)
- p24 1/10,000 ([4]; 250 µg/ml): 0.269 absorbance (454 nm)
- # OF SYNCYTIA/WELL Day 9 ([2]; 25 µg/ml): 15
- # OF SYNCYTIA/WELL Day 14 ([2]; 25 µg/ml): >100
- % OF POS CELLS ([2]; 25 µg/ml): 5-10%
- p24 1/10 ([2]; 25 µg/ml): 2.645 absorbance (454 nm)
- p24 1/100 ([2]; 25 µg/ml): 1.052 absorbance (454 nm)
- p24 1/1,000 ([2]; 25 µg/ml): 0.323 absorbance (454 nm)
- p24 1/10,000 ([2]; 25 µg/ml): 0.216 absorbance (454 nm)
- # OF SYNCYTIA/WELL Day 9 ([2]; 250 µg/ml): 30
- # OF SYNCYTIA/WELL Day 14 ([2]; 250 µg/ml): >100
- % OF POS CELLS ([2]; 250 µg/ml): 10-15%
- p24 1/10 ([2]; 250 µg/ml): 2.605 absorbance (454 nm)
- p24 1/100 ([2]; 250 µg/ml): 1.139 absorbance (454 nm)
- p24 1/1,000 ([2]; 250 µg/ml): 0.37 absorbance (454 nm)
- p24 1/10,000 ([2]; 250 µg/ml): 0.282 absorbance (454 nm)

Compound: NCC(=O)N1CCC[C@H]1C(N)=O [GP, Gly-Pro] (H-Gly-Pro-NH2)
- prevention of HIV infection by p24 levels and syncytia formation (words) [1]: do not inhibit HIV infectivity
- # OF SYNCYTIA/WELL Day 14 ([2]; 25 µg/ml, Table 6): 12
- PERCENTAGE OF AG POS CELLS ([2]; 25 µg/ml, Table 6): 20-25
- p24 1/10 ([2]; 25 µg/ml, Table 6): 1.673 absorbance (454 nm)
- p24 1/100 ([2]; 25 µg/ml, Table 6): 0.187 absorbance (454 nm)
- p24 1/1,000 ([2]; 25 µg/ml, Table 6): 0.016 absorbance (454 nm)
- # OF SYNCYTIA/WELL Day 14 ([2]; 250 µg/ml, Table 6): 25
- PERCENTAGE OF AG POS CELLS ([2]; 250 µg/ml, Table 6): 20
- p24 1/10 ([2]; 250 µg/ml, Table 6): > 2.0 absorbance (454 nm)
- p24 1/100 ([2]; 250 µg/ml, Table 6): 0.297 absorbance (454 nm)
- p24 1/1,000 ([2]; 250 µg/ml, Table 6): 0.036 absorbance (454 nm)
- inhibitory effect on HIV replication by p24 synthesis and syncytia formation ([2]; Table 6): had no inhibitory effect on HIV replication

Compound: N=C(N)NCCC[C@H](N)C(=O)NCC(=O)N1CCC[C@H]1C(=O)NCC(N)=O [RGPG, Arg-Gly-Pro-Gly-NH2] (H-RGPG-NH2)
- % OF POS CELLS ([3]; 25 µg/ml): 10% and 4-5%
- p24 1/10 ([3]; 25 µg/ml): 2.265 absorbance (454 nm) and 2.138 absorbance (454 nm)
- p24 1/100 ([3]; 25 µg/ml): 0.927 absorbance (454 nm) and 0.741 absorbance (454 nm)
- p24 1/1,000 ([3]; 25 µg/ml): 0.203 absorbance (454 nm) and 0.189 absorbance (454 nm)
- p24 1/10,000 ([3]; 25 µg/ml): 0.1 absorbance (454 nm) and 0.096 absorbance (454 nm)
- % OF POS CELLS ([3]; 250 µg/ml): 10% and 0%
- p24 1/10,000 ([3]; 250 µg/ml): 0.165 absorbance (454 nm) and 0.138 absorbance (454 nm)
- PERCENTAGE OF POS CELLS ([4]; 25 µg/ml): 10
- p24 1/10 ([4]; 25 µg/ml): 3 absorbance (454 nm)
- p24 1/100 ([4]; 25 µg/ml): 1.701 absorbance (454 nm)
- p24 1/1,000 ([4]; 25 µg/ml): 0.595 absorbance (454 nm)
- p24 1/10,000 ([4]; 25 µg/ml): 0.248 absorbance (454 nm)
- PERCENTAGE OF POS CELLS ([4]; 250 µg/ml): 0.2-0.5
- p24 1/10 ([4]; 250 µg/ml): 0.8 absorbance (454 nm)
- p24 1/100 ([4]; 250 µg/ml): 0.266 absorbance (454 nm)
- p24 1/1,000 ([4]; 250 µg/ml): 0.197 absorbance (454 nm)
- p24 1/10,000 ([4]; 250 µg/ml): 0.202 absorbance (454 nm)
- # OF SYNCYTIA/WELL Day 9 ([2]; 25 µg/ml): 2
- # OF SYNCYTIA/WELL Day 14 ([2]; 25 µg/ml): 50
- % OF POS CELLS ([2]; 25 µg/ml): 5%
- p24 1/10 ([2]; 25 µg/ml): 1.325 absorbance (454 nm)
- p24 1/100 ([2]; 25 µg/ml): 0.357 absorbance (454 nm)
- p24 1/1,000 ([2]; 25 µg/ml): 0.164 absorbance (454 nm)
- p24 1/10,000 ([2]; 25 µg/ml): 0.116 absorbance (454 nm)
- # OF SYNCYTIA/WELL Day 9 ([2]; 250 µg/ml): 0
- # OF SYNCYTIA/WELL Day 14 ([2]; 250 µg/ml): 0
- % OF POS CELLS ([2]; 250 µg/ml): 0%
- p24 1/10 ([2]; 250 µg/ml): 0.1 absorbance (454 nm)
- p24 1/100 ([2]; 250 µg/ml): 0.121 absorbance (454 nm)
- p24 1/1,000 ([2]; 250 µg/ml): 0.11 absorbance (454 nm)
- p24 1/10,000 ([2]; 250 µg/ml): 0.113 absorbance (454 nm)
- PLAQUE REDUCTION PERCENT OF CONTROL ([5]; 25 µg/ml): 83
- PLAQUE REDUCTION NO. OF PLAQUES ([5]; 25 µg/ml): 136
- PLAQUE REDUCTION PERCENT OF CONTROL ([5]; 250 µg/ml): 88
- PLAQUE REDUCTION NO. OF PLAQUES ([5]; 250 µg/ml): 143
- capacity of HSV-1 to replicate in GMK cells ([5]; plaque reduction and virus yields, Table 7): did not reduce the capacity of HSV-1 to replicate
